Measurements published in the supplement of paper PMC3334620.
The full ranking holds about 33,000 sequences; the median of “E-score (-0.5 to 0.5)” is about -0.013, and the highest 2% start at about 0.3. The list shows a part of the results.

molecular target: T1, Msn1 (UniProt P22148); experiment: PBM E-score (8-mer binding enrichment) (E-score (-0.5 to 0.5)); higher = stronger / more preferred TF binding; most listed sequences are background and not binding sites; conditions: protein concentration: 200 nM; construct: GST-full length
T1 sequence: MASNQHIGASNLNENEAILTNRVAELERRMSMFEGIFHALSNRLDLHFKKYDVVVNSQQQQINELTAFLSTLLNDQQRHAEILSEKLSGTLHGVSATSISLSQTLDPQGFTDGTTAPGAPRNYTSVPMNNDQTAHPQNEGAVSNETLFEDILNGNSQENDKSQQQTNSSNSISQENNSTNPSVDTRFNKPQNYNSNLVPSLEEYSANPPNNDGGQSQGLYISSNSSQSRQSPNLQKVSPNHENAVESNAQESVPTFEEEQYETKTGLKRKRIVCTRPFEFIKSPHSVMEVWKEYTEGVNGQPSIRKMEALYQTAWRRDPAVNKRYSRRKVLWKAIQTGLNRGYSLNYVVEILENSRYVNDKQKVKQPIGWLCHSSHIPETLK
Outline: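 GST-tagged yeast TFs (full-length or DNA-binding domain) were made by PURExpress in vitro transcription/translation and applied at about 100-200 nM to universal all-10-mer Agilent arrays. The arrays were made double-stranded by primer extension, on fresh or once-stripped slides. Bound protein was detected with fluorescent anti-GST, and scans were normalised with masliner. Each ungapped eight-base word, pooled with its reverse complement, received an E-score (modified Wilcoxon-Mann-Whitney statistic) from the Universal PBM Analysis Suite.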

Sequence	PBM E-score
GGCCCTCA	-0.286
GCCACTAC	-0.277
ACACATTA	0.0185
ACGCATAA	0.0812
CTTGACTA	0.0229
AGCTGGAA	-0.218
CCGAAACA	0.277
ACACGTCA	0.0589
ATTCCTCA	0.0824
AGTATCAT	0.0644
AGTCTTTA	-0.142
ATAGATAG	0.133
ACGCACAT	0.0159
TACGGGCA	-0.156
CTCGCGAC	0.0116
CCAAGACA	0.281
AGACGGCG	0.01
CTCATGAC	0.148
AGGCGTGG	-0.275
AACCAGTC	-0.0509
CCAAGCAG	-0.122
AACTAGCG	0.00753
AATCTGTG	-0.181
GGATCTAA	-0.0482
CGCTTACG	-0.274

Sequence	PBM E-score
ATTACGTG	-0.0695
ACACTCCA	-0.072
GAGGGATA	-0.165
CTAACCCC	-0.363
GGATCGTA	-0.0722
GTCGGCTA	0.056
CTATCAGC	0.0472
CCATTGAA	0.0256
AAGGCGAT	-0.0895
CTGGGCGA	-0.159
ATCGCGAA	0.198
GCCTCACA	-0.0461
ATCGACCG	0.0828
CGAGTTGC	0.0501
CGAGAAGA	-0.205
CGAAATCA	0.232
ACTGTTAT	0.0872
AAGTAACT	0.0297
ATCTGCAT	-0.0358
ACAAACGA	0.331
CCAGCCGG	-0.117
TCAGTGGA	-0.104
TCAAAAAA	0.192
AGTGATAG	-0.00506
TGCACGAA	0.0944

Sequence	PBM E-score
ATGAGTGA	0.12
AGGTAAGC	-0.0845
TCAACCCA	0.0465
CAGAAGTA	0.104
CTCGGCTC	-0.0214
GCAGCCAA	0.00179
CATGGGGC	-0.163
CACTGAGG	-0.232
ATTCTGAC	0.0721
CCAGAATC	-0.0285
GCTCTAAC	-0.158
TGTAGTAA	0.166
AATTGAAA	0.098
CATCATTC	-0.0311
ATGTGAAG	0.0467
GATAATCA	0.0779
ACAGTCAG	0.0633
ACAATTAA	0.266
CACCAACC	-0.171
AGAAGCGA	0.135
CAATCAGA	-0.112
CACACTGG	-0.259
CGTGTCGC	0.202
GAGCCATA	-0.0161
AAACCATA	0.0394

Sequence	PBM E-score
AAGAGCAC	-0.0794
CCACGCGA	-0.00597
GAGCTAGC	0.0321
AAGATGAG	-0.079
GATAGTGA	0.0164
CCAAGGGG	-0.117
CTCGCTAC	-0.183
ATAACAGG	-0.136
CGTTAACA	0.128
CGGGAGTC	-0.107
AATAACGT	0.147
AACACTTA	-0.00275
GCGAAAAC	0.08
CATGGATA	-0.183
ACTTGGTA	-0.0483
ATACAGTG	0.068
GGGGTACC	-0.335
CTGGGGAC	-0.152
AGTTATTC	0.0278
GTCGTGCA	0.0447
AAAGACTG	-0.176
AAGCCTTA	-0.139
AGTGGTTA	-0.104
AGGGTAGG	-0.212
CCATACGC	0.0172

Sequence	PBM E-score
GCGGCGAA	0.00043
GGGCTTAA	-0.178
TAGTAGAA	0.1
ATTGTAGA	0.0176
CAACTGGC	-0.0109
CCTCCACC	-0.365
ACGATCAA	0.00072
GCTGACCC	-0.216
GAGATCGA	0.0169
ACGGAGCA	-0.0424
ACTTTACT	0.139
GGTAGAGA	-0.104
AAATCGCG	0.106
TCTACTAA	0.114
CAATACCA	0.248
TGCGCGAA	0.0766
TCCATCGA	-0.0334
GATTCGAC	0.108
ATGGATCC	0.171
TCGGAAGA	0.149
ATGGGGTA	0.00897
CGAGGACG	0.0859
GTACCAAA	0.259
GGGTTGTA	0.00666
GGCTCTTA	-0.034

Sequence	PBM E-score
AACCTCAA	0.0396
CATATGCG	-0.00554
GTCCGGTA	0.106
ATTTACCG	0.121
CGTATTTC	0.075
GTCGAGTA	-0.0563
AACGCGAA	0.0718
GTTAGACA	0.33
AGTGAGTA	0.159
ACGCCGCC	-0.445
AATCCGGA	0.297
AATGCGTG	0.0114
CGCCTCAA	-0.0298
CACTTTTA	0.0114
CGTGTGTA	0.141
ATAACTAT	0.138
TACTAATA	0.0704
GGCATGAC	-0.192
GCGCGCAC	0.0728
CGGTGACG	-0.014
CTCATCTC	-0.0641
CCAGCGGC	-0.0286
CTAGTAGC	-0.165
GCCCAGAA	0.0114
CCTTAGCG	-0.0361

Sequence	PBM E-score
ATTGAAGC	0.0586
CCAACACA	0.173
TATTTGAA	0.123
AATCGCAT	0.00728
AAGGTCTA	-0.106
ACTCATAC	0.0542
CTTAGACA	0.232
ACTACGAG	-0.195
CCGCTGAA	0.0328
CCTGCTCA	0.0773
GCCTTGAC	-0.0138
AAGTAACA	0.129
AAAAAGGT	0.0779
AATAGAAC	0.0222
GCGTTGAA	0.144
CCGCGCCA	-0.195
CAGTTGAC	0.102
ACACCGTC	0.0288
AGCGCCCG	-0.161
CTAGTAGA	0.0356
CTTGGGAA	0.0403
CACGGCCC	-0.134
CCTAACCC	-0.339
GTCAGGAC	0.316
AACTAGAA	0.062

Sequence	PBM E-score
ACGATGCT	-0.16
GATGTCCC	0.462
ATTTTCGA	0.111
GCCTTAGC	-0.0625
GTGGTCTA	-0.126
AAGATTAG	0.0791
AAACTCCC	-0.119
ATATGGAC	0.356
CCCATTCC	-0.377
CTTCAACC	0.0211
GCAGGCCC	-0.191
GGGAGTAC	-0.149
ATCCATAC	0.0973
ACCCAACG	-0.00724
GGGTAGAA	-0.0543
ATGAAATA	0.0873
AATCGCTA	-0.00167
CCTAAAGC	-0.148
TGAACTCA	0.0356
GCCCTGAA	-0.0545
GACACCGA	0.28
AGCAGCTA	0.0463
AACATAAG	0.201
AACCCACC	-0.163
CACTCAGG	-0.183

Sequence	PBM E-score
GATACTTA	0.0239
CCAATCGA	0.0315
AAGCCATG	-0.0712
ATGTTAAC	0.163
AGTCTCAG	0.0296
ATCTACTA	0.12
ACTGTTTA	-0.0587
GAGCACAC	-0.221
ATCTCGCG	0.117
CTTCCAAG	-0.154
GTTGCATA	-0.108
TGGCAGAA	0.0862
CCCTGTTC	-0.213
GATCCCCA	-0.118
CGAATCTA	0.0472
CAACTGGG	-0.122
AGTGCCTG	-0.141
AGCATGCC	-0.219
GGAAGTCA	-0.0194
CACGCTAA	-0.08
CGCCCGCA	-0.19
AATGCTTA	-0.166
AAACGAGA	0.104
GGGGTCAA	-0.022
CAGTTAAC	0.051

Sequence	PBM E-score
GCTGCCCC	-0.221
AGGCATGG	-0.184
ACCCATAA	0.0631
AGATCGAG	-0.00049
GCCCCCTA	-0.375
ATTCGTTA	0.00793
AATCTTGA	-0.107
ATTTTCCG	0.271
CGTAAATA	0.253
ATTGAGCG	-0.00095
CGGACTGC	0.0541
AATGCATG	0.113
ACTTTCTC	0.0833
GTCGATCA	-0.0383
GCCCGGTA	-0.117
GGTTTCAA	-0.042
CGCGTGGA	-0.0204
CGTGGCAG	-0.0253
GTTAGGGA	-0.0237
ATAGTGGG	-0.127
ACCACGCG	0.086
ATGACGAC	0.118
GTCAACCA	-0.108
CGTCATTA	-0.0022
ATCATCCC	-0.147

Sequence	PBM E-score
CGTTTATC	0.0699
AACCAACA	0.0364
ACTAAACA	0.169
AGGTGAGC	-0.277
ACCCCCTG	-0.374
GCCTGACC	-0.234
AGTGGTGC	-0.18
ACTCACGG	0.00759
CCGACGAA	0.249
CAGTAAGA	0.104
ACCGTGGA	-0.0621
AGTGACCG	-0.242
GCCTAGGC	-0.177
ACGTCTAG	0.174
CCTGGCTC	-0.173
TCCAAAAA	0.232
CAACGTCA	-0.0181
GAGACCGA	-0.0115
AACGAACA	0.127
GGCGCCGA	0.0516
AGCCTGCC	-0.0992
AAGACTTC	-0.136
CCGTCAGG	-0.019
ACTCCTGG	-0.274
CCGATACG	-0.0476

Sequence	PBM E-score
GTAATGGA	0.174
GACCATGC	0.0413
TGACTCCA	-0.305
TTAATAAA	0.294
CCCCTAAG	-0.293
GAATTGGA	0.0681
CGTTGCCC	-0.0849
CATGAACC	0.0529
CACGTAGC	-0.317
ATACAAAC	0.125
ATAGGCCG	-0.147
CACAGGTC	-0.124
GTACTTAA	0.0985
AACCGCGT	0.223
CTAGGAGA	-0.199
CACGTTCG	-0.174
ACTTCCCA	0.128
GCATCAAC	-0.0904
AAAATTTA	0.149
CCTGTAAG	-0.0196
CGAAAAAG	0.136
ACGCCCGA	0.0847
TATTGAGA	0.208
ACCGGCGG	-0.193
CCTTTAAG	-0.107

Sequence	PBM E-score
ACTGGCGG	-0.113
GTAAGTCA	0.164
CGGCCGAC	0.194
ACAGAGAA	-0.0246
CTAGGTGC	-0.295
CGACCGGA	-0.0896
GTGGAAGA	-0.0989
CCAGTAAA	0.013
GACTCTAA	-0.12
AGTATTCA	-0.0452
TCATCCCA	-0.056
TACATCCA	-0.0268
CGCGGTAC	0.0431
TCATAAGA	0.027
ACCGAGTG	-0.0955
TAATTTCA	0.25
CCTGGGCC	-0.332
AGGCTGCG	-0.0599
ACCAAAAG	0.179
AATGCAGC	-0.131
GGGGCATA	-0.174
CCGGATAG	0.133
AACGATTC	0.0798
ACTTTCGG	0.145
CAAGTCGG	0.0181

Sequence	PBM E-score
CTACACAG	-0.0164
GTAGGCAC	-0.217
ACCAATGC	-0.0458
CCGGAAAA	0.25
AGAATTGG	-0.0308
CGATATAA	0.0521
CCATCCGG	-0.251
ACTTCAAA	-0.00228
ACCCTTCG	-0.212
CAAAGTAA	-0.0884
AATTTGGA	0.156
AATTGTTG	0.068
CACTCATA	-0.0403
CGATGCCA	-0.127
ACAGATTG	-0.0858
GATAAAGA	-0.029
AAGGGCTC	-0.275
CAAACCGC	0.0708
ACGCGCAA	0.0758
